In all, about 310,000 compounds went through this assay and about 14,000 (4.5%) showed an effect of 50% or more. Effects have a minus sign here. The list shows a part of the results.
target: human ether-à-go-go-related gene (hERG) potassium channel (human, UniProt Q12809); assay: primary screen, population patch clamp on CHO cells stably expressing hERG
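Also: peak tail current of the secondary pulse compared with the same well before compound.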

Chain of human ether-à-go-go-related gene (hERG) potassium channel (Q12809 whole entry, looked up): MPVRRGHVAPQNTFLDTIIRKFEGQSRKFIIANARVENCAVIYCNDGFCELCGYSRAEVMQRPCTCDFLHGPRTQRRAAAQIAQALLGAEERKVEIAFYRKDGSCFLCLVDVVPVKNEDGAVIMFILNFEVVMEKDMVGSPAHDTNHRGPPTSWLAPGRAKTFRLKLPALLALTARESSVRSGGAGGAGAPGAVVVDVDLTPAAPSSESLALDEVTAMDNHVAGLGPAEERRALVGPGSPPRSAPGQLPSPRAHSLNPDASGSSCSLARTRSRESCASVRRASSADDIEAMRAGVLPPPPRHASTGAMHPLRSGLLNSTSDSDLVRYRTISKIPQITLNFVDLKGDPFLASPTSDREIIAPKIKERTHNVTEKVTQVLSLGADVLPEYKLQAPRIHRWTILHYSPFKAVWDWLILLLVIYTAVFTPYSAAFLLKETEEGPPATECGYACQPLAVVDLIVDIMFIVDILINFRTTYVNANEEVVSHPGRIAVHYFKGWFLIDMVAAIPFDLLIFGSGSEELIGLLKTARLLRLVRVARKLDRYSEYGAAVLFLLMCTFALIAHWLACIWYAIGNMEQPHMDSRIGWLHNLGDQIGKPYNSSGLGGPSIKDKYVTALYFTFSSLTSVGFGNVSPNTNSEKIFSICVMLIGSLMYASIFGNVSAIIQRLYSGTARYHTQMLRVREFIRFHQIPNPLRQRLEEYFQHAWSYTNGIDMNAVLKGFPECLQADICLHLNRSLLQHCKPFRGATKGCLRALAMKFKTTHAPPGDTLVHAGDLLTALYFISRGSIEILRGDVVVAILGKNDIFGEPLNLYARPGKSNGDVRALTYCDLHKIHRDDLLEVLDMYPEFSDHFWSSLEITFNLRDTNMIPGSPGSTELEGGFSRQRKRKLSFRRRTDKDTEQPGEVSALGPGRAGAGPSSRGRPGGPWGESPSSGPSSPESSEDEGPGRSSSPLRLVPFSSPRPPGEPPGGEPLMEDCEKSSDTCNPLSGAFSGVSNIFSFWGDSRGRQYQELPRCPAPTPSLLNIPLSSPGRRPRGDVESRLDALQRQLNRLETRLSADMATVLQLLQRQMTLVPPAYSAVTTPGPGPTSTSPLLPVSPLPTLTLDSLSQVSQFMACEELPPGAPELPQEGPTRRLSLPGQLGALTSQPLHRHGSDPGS

| SMILES | hERG current change (%, negative = inhibition) at 10uM [%] |
| --- | --- |
| O=C(CSc1nnc(SCc2ccc(Cl)cc2)s1)N/N=C/c1c[nH]c2ccccc12 | 2.15 |
| Cc1ccc(CNC(=O)c2ccc(OCC3CCCO3)cc2)cc1 (stereo not shown) | 6.09 |
| O=C(c1ccc(Cl)cc1)C1CCN(C(=O)c2ccccc2)CC1 | -34.3 |
| Cc1ccc(NC(=O)c2cc(=O)n(Cc3ccccc3)c(=O)[nH]2)cc1C | 35.8 |
| Br.Cc1cc(C)cc(OCC(=O)NN2Cc3ccccc3C2=N)c1 | -11.6 |
| Cc1ccc(S(=O)(=O)N2CCC(C(=O)NC3CC(C)(C)NC(C)(C)C3)CC2)cc1 | 14.1 |
| NC(=O)CC(NC(=O)Cc1ccc(Br)cc1)c1ccc(NCc2ccc(F)c(F)c2)c([N+](=O)[O-])c1 (stereo not shown) | -1.71 |
| O=C(NCc1ccco1)c1csc2c1CCCC2 | 3.81 |
| C=C(C)Cn1c(SCC(=O)O)nnc1-c1ccc(C(C)(C)C)cc1 | 19.4 |
| CC(C)n1cc(CN2CCC(n3nccc3NC(=O)Cc3ccccc3)CC2)cn1 | 7.82 |
| O=C(NCCN1C(=O)S/C(=C\c2cccnc2)C1=O)C1CC(=O)N(Cc2ccco2)C1 (stereo not shown) | 14.5 |
| CCC(C)(C)c1ccc(OCC(=O)Nc2ccncc2)cc1 | -16 |
| CCN1CNC(=S)N(Cc2ccccc2)C1 | -4.02 |
| CC(C)(C)OC(=O)N1CCC(c2c(C(=O)N3CCN(C(=O)c4ccco4)CC3)cnn2-c2ccc(F)cc2)CC1 | -14.8 |
| O=C(NNC(=O)c1ccc(Cl)cc1Cl)c1cccs1 | 25.1 |
| Cc1ccc(NC(=O)c2ccc(Cl)c(N3C(=O)C=CC3=O)c2)cc1 | -0.826 |
| CC(=O)Nc1cc(O)cc(O)c1 | 4.9 |
| Cc1ccc(S(=O)(=O)N2CCCOC2CNC(=O)C(=O)NCCCn2ccnc2)cc1 (stereo not shown) | 9.65 |
| CC1=NN(c2ccccc2)C(=O)C1C(=O)c1ccc([N+](=O)[O-])cc1 (stereo not shown) | 3.92 |
| COc1ccc(C(CC(=O)c2ccccc2)S(=O)(=O)c2ccccc2)cc1 (stereo not shown) | 6.69 |
| CCn1c(SCC(=O)Nc2ccc(NC(C)=O)cc2)nc2c1c(=O)n(C)c(=O)n2C | 24.7 |
| COc1ccc(C(=O)NCc2ccc3c(c2)cc(C)n3C)cc1OC | -4.32 |

| SMILES | hERG current change (%, negative = inhibition) at 10uM [%] |
| --- | --- |
| Nc1c(Br)cc([N+](=O)[O-])cc1[N+](=O)[O-] | 10.8 |
| O=C(NN1C(=O)NC2(CCCCC2)C1=O)c1cc(F)cc(F)c1 | -2.73 |
| COc1cc(CNC(C)(C)CO)ccc1OCC(=O)Nc1ccc(Br)cc1 | -38.3 |
| Cn1c(Sc2ccc(Br)cc2)c(C=O)c2ccccc21 | -3.98 |
| CC(C(=O)NCCS(=O)(=O)c1ccc(Cl)cc1)S(=O)(=O)c1ccc(Cl)cc1 (stereo not shown) | -27.8 |
| CCOc1ccc(N(CC(=O)Nc2ccc(OC)cc2)S(=O)(=O)c2c(C)[nH]c(=O)[nH]c2=O)cc1 | 1.99 |
| Cc1coc2c1c(C)cc1oc(=O)c(CC(=O)NCCCCCC(=O)O)c(C)c12 | 22.9 |
| C=CCOc1ccc(/C=C2\SC(=S)N(NS(=O)(=O)c3ccccc3)C2=O)cc1 | 4.47 |
| C=CCn1c(SCC(=O)Nc2sccc2C(N)=O)nc2sc(C)c(C)c2c1=O | 13 |
| Cc1ccc(NC(=O)Cn2nc(-c3ccccc3)nc2-c2ccccc2)c(C)c1 | 20 |
| CCOC(=O)C1CCCN(C(=O)CN2C(=O)c3ccccc3C2=O)C1 (stereo not shown) | -0.575 |
| O=C(NN=C1CCCCCC1)c1ccncc1 | 11.3 |
| c1ccc(-c2nc(C3CCCCC3)c3sccc3n2)cc1 | 9.26 |
| CCn1c(SCc2c(Cl)cccc2Cl)nnc1-c1nn(-c2ccccc2)ccc1=O | -66.1 |
| CCC(=O)N1CCc2cc(S(=O)(=O)NC(C(=O)NCc3ccc(F)cc3)C(C)C)ccc21 (stereo not shown) | 9.46 |
| O=C1N=C(c2ccccc2)S/C1=C\c1cccs1 | 5.19 |
| Cc1cccc(-c2cc(C(=O)Nc3ccc4c(c3)OCCO4)c3ccccc3n2)c1 | -2.65 |
| O=C1CC(c2ccccc2)CC(=O)C1Sc1ccc(Cl)cc1 (stereo not shown) | -2.22 |
| CCC(=O)Nc1cccc(C(=O)OCC(=O)c2ccccc2Cl)c1 | -8.8 |
| CCOc1ccc(C(=O)NC2CCN(C(=S)Nc3ccccc3C)CC2)cc1 | 36.2 |
| O=C(O)c1ccccc1-c1ccccc1C(=O)NCCc1ccccc1 | 8.04 |
| CCC1CCCCN1S(=O)(=O)c1ccc2[nH]c(=O)ccc2c1 (stereo not shown) | -60.1 |

| SMILES | hERG current change (%, negative = inhibition) at 10uM [%] |
| --- | --- |
| Cc1ccc(C#N)c(SCc2cc3c(cc2Cl)OCO3)n1 | 16.5 |
| Cc1nnc2c3ccccc3c(-c3ccc(O)cc3)nn12 | 1.7 |
| CCCCC(=O)Nc1ccc2c(c1)OCCO2 | 10.4 |
| C=CCSc1nnc2c(n1)OC(c1c(C)[nH]n(-c3ccccc3)c1=O)Nc1ccccc1-2 (stereo not shown) | -33.6 |
| Cn1nnnc1SCC(=O)Nc1ccc2c(c1)OCCO2 | 20.8 |
| CCOC(=O)N1CCC(NC(=O)c2cc(C(=O)NC3CCN(Cc4ccccc4)CC3)ccc2CO)CC1 | 7.41 |
| O=C(c1ccccc1)N1CCCCC(S(=O)(=O)c2ccccc2)C1=O (stereo not shown) | -9.48 |
| NC(=O)CSc1nc2cc3c(cc2c(=O)n1CCCC(=O)NCc1ccc2c(c1)OCO2)OCO3 | -31.6 |
| CC1CCCN(CC(=O)Nc2ccc(S(=O)(=O)N3CCCC3)cc2)C1 (stereo not shown) | 1.82 |
| COc1ccc(C(=O)Nc2ccc(Cl)cc2C(=O)N2CCOCC2)cc1 | 4.85 |
| CCOC(=O)Cc1csc(NC(NC(=O)CC)(C(F)(F)F)C(F)(F)F)n1 | 7.05 |
| O=C1COc2cc(ccc2[N+](=O)[O-])Oc2ccc(cc2Cl)C(=O)CCCCO1 | 10.8 |
| CCN1CCC2(CCNC2)C1.Cl (stereo not shown) | -10.9 |
| CCn1c(SCC(=O)Nc2ccc(OC)cc2)nc2nc3c(cc2c1=O)CCCC3 | -62.6 |
| COc1cc2c(cc1OC)C(c1ccccc1)CC2=O (stereo not shown) | 7.03 |
| Cc1ccc(N(C(=O)CCC(=O)Nc2cc(C)on2)C(C(=O)NC2CCCC2)c2ccncc2)cc1 (stereo not shown) | -3.7 |
| Nc1nnc(SCc2ccccc2)n1-c1ccccc1 | -19.9 |
| O=C(O)CCn1c(-c2ccccn2)nc2ccccc21 | 13.9 |
| O=C(Nc1ccc(Cl)cc1)C1C2C=CC3(O2)C1C(=O)N(CCN1CCCCC1)C3C(=O)NC1CCCCC1 (stereo not shown) | -44.1 |
| CN(C)c1ccc(CN(C(=O)COc2ccc(Br)cc2)C2CCS(=O)(=O)C2)cc1 (stereo not shown) | -17.7 |
| O=C(COC(=O)CSc1ccc([N+](=O)[O-])cc1)NCc1ccco1 | 12.5 |
| COc1ccc(-n2cc(CN(C)Cc3n[nH]c(=O)[nH]3)c(-c3cccc(F)c3)n2)cc1 | -15.4 |

| SMILES | hERG current change (%, negative = inhibition) at 10uM [%] |
| --- | --- |
| CCCCN(CC)CCNS(=O)(=O)c1ccc2c(c1)oc(=O)n2C | -3.03 |
| O=C(O)CC(=O)Nc1cc(Cl)ccc1O | 4.07 |
| Cc1nn(S(=O)(=O)N2CCCCC2)c(C)c1Br | 6.5 |
| OCC[C@@H]1C[C@H](O)[C@@H](O)[C@@]2(CCc3ccccc3O2)O1 | -3.24 |
| Cc1occc1C(=O)Nc1ccc2c(c1)OCCO2 | -14.2 |
| CSc1nsc(SCC(=O)Nc2ccccc2C(=O)O)n1 | 19.5 |
| CC(C)(C)C(=O)C1=C(O)C(=O)N(Cc2ccccc2)C1c1ccccc1Cl (stereo not shown) | 14.1 |
| C/C(=N\NC=O)c1ccncc1 | 3.94 |
| CC(=O)N/C(=N/c1nc(C)cc(C)n1)Nc1ccc(C)cc1C | -10.6 |
| CC(C)(C)c1ccc(C(=O)CSc2ncn[nH]2)cc1 | -0.683 |
| CC1(C)NC(=O)N(CC(=O)N2CCCC(C(F)(F)F)C2)C1=O (stereo not shown) | 10.4 |
| Cc1ccc(C)c(S(=O)(=O)c2c[nH]c(=S)[nH]c2=O)c1 | 13.4 |
| Cc1ccc(NC(=O)C2(NC(=O)c3cccc(N4C(=O)CSC4c4ccccc4)c3)CCCCC2)cc1 (stereo not shown) | 2.72 |
| COc1ccc(NC(=S)NC(=O)CC(C)C)c(OC)c1 | 20.9 |
| CCOC(=O)c1c(C)c(C(=O)N2CCC3(CC2)OCCO3)c(C)n1CC | 12.7 |
| O=C(CSCc1ccc(F)cc1)Nc1ccccc1C(=O)N1CCOCC1 | -3.51 |
| O=C(Nc1ccc2c(c1)nc1n2CCSC1)c1ccccc1 | -14.9 |
| Cc1ccc(-c2csc(NC(=O)c3cnccn3)n2)cc1C | 9.47 |
| CCOc1ccc(C2C3=C(Nc4nc(N)[nH]c(=O)c42)c2ccccc2C3=O)cc1 (stereo not shown) | -12.2 |
| CCCNC(=S)Nc1ccc(Cl)cc1C | 1.16 |
| Cc1cc(CN(C)C(=O)CC2C(=O)NCCN2Cc2c(F)cccc2Cl)n[nH]1 (stereo not shown) | 2.87 |
| CC(NC(=O)C1CCN(S(=O)(=O)c2cccs2)CC1)c1cccc(Cl)c1 (stereo not shown) | -46 |

From paper PMC4336329 (PLoS ONE, 2015)
